Test results from the supplement of paper PMC11417369.
± gives the standard deviation of the averaged measurements. The list shows a part of the results.

These sequences were tested on PfAP2-I AP2 domain 3 (GST-tagged) (assay: gcPBM binding intensity (ln(normalized median fluorescence intensity)); higher = stronger DNA binding).
Summary of the method: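 The highest Masliner-normalised natural-log median intensity across replicate spots of either probe orientation is reported as binding intensity. GST-tagged P. falciparum DNA-binding domains expressed in E. coli were applied for 1 h to an Agilent 4 × 180k array of primer-extended double-stranded 36-bp intergenic genomic probes plus negative controls, and bound protein was detected with Alexa488 anti-GST antibody and scanned at 488 nm.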

Sequence	gcPBM binding intensity (ln)
ATTTATTTATATAGAAGTACATATTTATTTATATAT [XGTACX_site6283]	7.74 ± 0.26
TAGAAATATAATTAATGTACATATGATATTATATAT [XGTACX_site923]	7.67 ± 0.47
ACATCAAGCAGACACACACACACACCCACCCACCGA [CACACA_site371]	8.19 ± 0.74
CTTTTTTAAATTATTGCACACAAAAATGAAAGGAAA [CACACA_site8412]	10.2 ± 0.45
ATATATTTATTAAGGTGTACAAAAATTATGTTGCAT [XGTACX_site7546]	8.26 ± 0.35
TATTTTATCTAAGGATGTACATTATTAAGAAAATGT [XGTACX_site6123]	7.7 ± 0.45
TTCATATAAATACATGCACACAAAAATATCAATACA [CACACA_site8753]	8.69 ± 0.16
ATATATTTTATTACCAGTACATATATTAAAATAATA [XGTACX_site8440]	7.91 ± 0.4
ATATAATGTGTAGGCCGTATTTACGTTTGGCAATCA [CACACA_negctrl_site1130]	7.83 ± 0.53
TATACAATATAAAATACACACGCACCCAAAAAAAAA [CACACA_site9174]	8.73 ± 0.54
ATTTTTTTATTTGATTGTACAATTTTCTTTCAAAAT [XGTACX_site2902]	8.18 ± 0.54
TATAATATAATATATATATATATATATATATAAGAA [CACACA_negctrl_site78]	8.18 ± 0.39
AGGGTTACAAGAGGAACACACAAAAAAATAAATAAA [CACACA_site1436]	7.66 ± 0.78
AAAAAAAATAGACACACACACATACACATAAATATA [CACACA_site7742]	7.79 ± 0.43
TTTATATTACAATAATATATTAAAAAATAAAATATA [TGCATGCA_negctrl_site18]	7.39 ± 0.25
ATTAAATCTATATATACACACATGTTTGGTATATTC [CACACA_site2657]	7.73 ± 0.52
TTTGTAATAAACTACTTTTTTTTTTTTTTTTTTTTT [CACACA_negctrl_site571]	9.46 ± 0.26
ATCTATTTCTATTGTTGTACTTATTTTTCATTGTTT [XGTACX_site6942]	8.23 ± 0.47
CGATTACTAATTTTTAGTACATATAATCAATATGTA [XGTACX_site7857]	7.58 ± 0.32
ATGTAGCCTTACGCTTGTACGAATATCTTAATTTTT [XGTACX_site4331]	7.67 ± 0.67
TAAGAAATAAATAGTACACACATAGACACCCACCCA [CACACA_site8429]	8.65 ± 0.54
AAACAAAATGGTAACACACACATATATAAATATGTA [CACACA_site6994]	7.67 ± 0.43

Sequence	gcPBM binding intensity (ln)
TATTATAAAGAAATTACACACATGCAATGAAAAAAA [CACACA_site1697]	8.12 ± 1
TCGTTTCCTTAAAATTGTACTTTTTTTTTTTTTTTT [XGTACX_site64]	8.68 ± 0.31
TAATGATAAATACATACACACAAAAAATAATATATA [CACACA_site2576]	7.6 ± 0.49
TGTTATTATTTGTACACACACATATAGATCCTTGTT [CACACA_site7667]	8.21 ± 0.46
AGAGTATATATATATGCATGCATATCTCATATTTAT [TGCATGCA_site509]	7.77 ± 0.64
CCTAAATATTTTTTATGTACATATTTATCTAAATTT [XGTACX_site6835]	8.04 ± 0.31
TGAGGAAACATGAGATGTACATATAAATTTTTTTTT [XGTACX_site2595]	7.54 ± 0.43
ATAGAAATTATAAATAGTACATAATAAAAATGAGCA [XGTACX_site822]	7.89 ± 0.45
ATTAAAGAGATATATACACACATTATGGGGGAATAA [CACACA_site6226]	8.63 ± 0.28
TAATAATAAACAACCACACACAAAAAAACAAAAAAA [CACACA_site3269]	7.8 ± 0.51
ATTTAATTATGTAAGTGTACTTTGGAATATAATATT [XGTACX_site3186]	7.83 ± 0.45
GTAGCACATATATATTGTACATAATATATACATTAT [XGTACX_site6354]	7.83 ± 0.44
GTGTGGTGCTCGAGGAGTACAAACAATATGTAATTT [XGTACX_site4160]	8.3 ± 0.35
TAAACAGACATATAAACACACATATAAACAGACATA [CACACA_site7214]	7.71 ± 0.69
TTTATTTTATAATTCACACATATATACCTATTTTAT [CACACA_site5709]	7.8 ± 0.42
TTTTCTTCCTATTATTGTACATATAGTATTCTTTCA [XGTACX_site4428]	8.24 ± 0.81
AATATAAGTAATTATACACACTTAATATTTATATAC [CACACA_site7334]	7.7 ± 0.45
TTATTTGATTACTTGCGTACTTATTTCATATTTTTT [XGTACX_site6648]	8.04 ± 0.69
GGGATATTTTAAAGGGTGCATATTATTAAAATAATG	10.7 ± 0.51
ATGAGAAAACATAAAAGTACAAAAAGAAAAAAAAAA [XGTACX_site6020]	7.98 ± 0.67
TTGGGTCAAACATAAACACACACAAAAAGAAAAAAT [CACACA_site8328]	7.79 ± 0.53
TATTATATTAATGATGGTACAGTGTATATATATAAT [XGTACX_site1286]	8.13 ± 0.59
